PubChem BioAssay AID1345083 (National Center for Advancing Translational Sciences (NCATS), 2018)
Where “and” joins values, the source holds several entries; their conditions need not be identical. Equal values may be shown once. In all, about 94,000 compounds went through this assay and about 6,200 (6.6%) were called active. Inconclusive results, whose numbers are uncertain, are shown with a selection of clear calls. Calls come from the whole dose curve; as a rule, active = well fitted inhibition curve with a large enough effect; inconclusive = small, poorly fitted or top-dose-only effect; inactive = flat fitted curve, though single readings scatter. A potency beside an inconclusive call is a rough fit, not a confirmed value.

Experiment: Cytotoxic Profiling in HEK 293 Cell Line of Diverse Libraries Using Quantitative High-Throughput Screening; note: nearly all actives have a fitted effect of over 60% in size
Conditions: HEK 293 viability, ATP luminescence (CellTiter-Glo), 48-72 h; series mostly up to 115 µM
Text: Cell-based phenotypic screening is a commonly used approach to discover biological pathways, novel drug targets, chemical probes and high-quality hit-to-lead molecules. Many hits identified from high-throughput screening campaign are ruled out through a series of follow-up potency, selectivity/specificity, and cytotoxicity assays. Prioritization of molecules with little or no cytotoxicity for a more in-depth downstream evaluation influence the future direction of projects, so cytotoxicity profiling of the screening libraries at early stage is essential for increasing the likelihood of candidate success. In this study, we analyzed results from a cell-based cytotoxicity screening campaign, comprising nearly 10,000 compounds in NCATS annotated libraries, and over 100,000 compounds in a diversity library, evaluated in four normal cell lines (HEK 293, NIH 3T3, CRL-7250 and HaCat) and a cancer cell line (KB 3-1, a HeLa subline) with overall screening outcomes, hit rates, pan-activity and selectivity. For the annotated library, we also examined the primary targets and mechanistic pathways regularly associated with cell death. To our knowledge, this is the first study to use high-throughput screening to profile large libraries for cytotoxicity assessment in both normal and cancer cell lines. In summary, the results generated here constitutes a valuable resource for the scientific community and provides insight on identifying cytotoxic compounds with particular mechanisms of action, and prioritizing compounds with suitable cytotoxicity profile for further evaluation.
HEK 293 cells were seeded into white 1536-well plates using a Multidrop Combi peristaltic dispenser (ThermoFisher, Waltham, MA) at a density of 250 cells/well in 5 uL of medium respectively. A pintool (Kalypsys) was used to transfer 23 nL of compound solution to the 1536-well assay plates. After 48 or 72 hr incubation at 37 degree Celsius, 5% CO2 and 95% humidity, 2.5 uL of CellTiter-Glo (Promega) was dispensed into each well using a dispenser (Aspect Automation, St. Paul, MN) with solenoid valves (Lee Valves, Westbrook CT). Plates were left at room temperature for 10 min before imaging the ATP-coupled luminescence using a ViewLux microplate imager (PerkinElmer, Waltham, MA).
Potency is the fitted concentration of half-maximal effect; tags give direction and shape of the fitted curve.

Q: For `COc1ccc(C(=O)N2CCC(n3cc(-c4nc(-c5ccccc5)no4)nn3)CC2)cc1`, which Potency is on record?
A: inconclusive: 50.1 µM [inhibitor, partial curve, poor fit]

Q: With `C=CCOc1c(OC)ccc2c1CN(Cc1ccccc1)C(=O)CCN2CC(O)COCc1ccco1` (stereo not drawn) as the compound, how does the Potency read?
A: inconclusive: 50.1 µM [inhibitor, partial curve, poor fit]

Q: With `Cc1cccc(-n2ncc3c2CCCC3NC(=O)CCC(F)(F)F)c1C` (stereo not drawn) as the compound, how does the Potency read?
A: inconclusive: 39.8 µM [inhibitor, full curve]

Q: Which Potency does the source give for `COc1cc(OC)cc(C(=O)N2CCC[C@H]2c2nc(-c3ccccc3)no2)c1` here?
A: inconclusive: 35.5 µM [inhibitor, full curve]

Q: For `CC(=O)N1CC2(CCN(Cc3cnc(N)nc3)CC2)CC1C(=O)O` (stereo not drawn), which Potency is on record?
A: inactive

Q: With `O=c1c2nc(-c3ccncc3)ccc2ncn1-c1ccccc1` as the compound, how does the Potency read?
A: inactive

Q: For `COc1ccc(CN2CCn3c(nn(-c4ccc(C(F)(F)F)cc4)c3=O)C2)cc1`, which Potency is on record?
A: inactive

Q: With `CN(C)[C@@H]1CN(C(=O)c2ccsc2)CC[C@]1(O)c1ccccc1` as the compound, how does the Potency read?
A: inactive

Q: Which Potency does the source give for `Cc1ccc2nc(C3CCCN(Cc4cccc(-c5ccc(F)cc5F)c4)C3)[nH]c(=O)c2c1` (stereo not drawn) here?
A: inconclusive: 56.2 µM [inhibitor, partial curve, poor fit] and inconclusive: 44.7 µM [inhibitor, partial curve, poor fit]

Q: Which Potency does the source give for `CCN(CC)C(=O)N1CCCC(c2nc(CCOCC3CCOCC3)no2)C1` (stereo not drawn) here?
A: inactive

Q: For `COc1ccccc1-c1cc(C(=O)NC2CC2)c2cnn(C)c2n1`, which Potency is on record?
A: inconclusive: 44.7 µM [inhibitor, partial curve]

Q: Which Potency does the source give for `CC(C)(CC(=O)O)CC(=O)N1CCN2C(=O)c3cc(-c4ccc(Cl)cc4)ccc3NC(=O)[C@@H]2C1` here?
A: inactive

Q: With `O=C(NCc1ccccn1)c1cccc2c1CCN2C(=O)C1CC1` as the compound, how does the Potency read?
A: inactive

Q: With `COc1ccc(C(=O)N2Cc3ccccc3CC23CCCN(C(=O)CCCN)C3)cc1` (stereo not drawn) as the compound, how does the Potency read?
A: inactive

Q: Which Potency does the source give for `Cc1noc(C)c1S(=O)(=O)N1CCC2(CC1)C(=O)N(C)c1ccccc12` here?
A: inconclusive: 89.1 µM [inhibitor, single point]

Q: With `Cc1ccc(NC(=O)Cn2c(-c3ccc(F)cc3)nc(C)cc2=O)c(Cl)c1` as the compound, how does the Potency read?
A: inconclusive: 31.6 µM [inhibitor, partial curve]

Q: Which Potency does the source give for `COc1ncccc1-c1cc(-c2cn[nH]c2)c2cncn2c1` here?
A: inconclusive: 100 µM [inhibitor, partial curve]

Q: With `COC[C@@H]1CN(S(=O)(=O)c2cccc(F)c2)C[C@H]1c1ccncc1` as the compound, how does the Potency read?
A: inconclusive: 39.8 µM [inhibitor, full curve, poor fit]
